Measured values from PubChem BioAssay AID504706 (National Center for Advancing Translational Sciences (NCATS), 2011).
Out of some 320,000 compounds screened, about 200 (0.062%) were called active. The shares of active, inactive and inconclusive entries below differ from those in the screen. Calls come from the whole dose curve; as a rule, active = well fitted activation curve with a large enough effect; inconclusive = small, poorly fitted or top-dose-only effect; inactive = no such curve, though single readings can be large or run the other way. Potencies of inconclusive entries are left out as doubtful fits.

assay: qHTS assay for re-activators of p53 using a Luc reporter; details: H1299 p53-A138V BP100-luciferase reporter, luminescence, 24 h; series mostly up to 92.2 µM; note: nearly all actives have a fitted effect of over 45% in size
In short: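 p53-null H1299 cells stably carrying temperature-sensitive p53-A138V and a BP100-luciferase reporter were pinned with compounds (4-point, 1:5 series) and held 24 hrs at 37 deg C. Luminescence was read 10 min after detection reagent.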
Potency is the fitted concentration of half-maximal effect; tags give direction and shape of the fitted curve.

SMILES	Potency
O=C(Nc1nc2ccccc2s1)c1ccccc1[N+](=O)[O-]	active: 28.2 µM
O=c1c2ccccc2oc2cc(-c3ccc(CN4CCOCC4)cc3)ccc12	inconclusive [activator, partial curve, poor fit]
O=C(c1cccc(-n2cnnn2)c1)N1CC=C(c2ccccc2)CC1	inconclusive [activator, single point]
Cc1ccc(-n2nc3c(c2NC(=O)c2ccccc2)CS(=O)(=O)C3)cc1C	inactive
O=C(O)/C=C/c1ccc(S(=O)(=O)NCc2cccnc2)cc1	inactive
CCCCOC(=O)Nc1ccc(C(C)C)cc1	inconclusive [activator, full curve, poor fit]
C=CCC1(CC=C)CCCN1C(=O)C1CCC(=O)N(CCc2ccc(OC)cc2)C1 (stereo not drawn)	inconclusive [activator, partial curve, poor fit]
CSc1nncn1/N=C/c1ccc([N+](=O)[O-])cc1	inactive
Cc1nc(C)c(-c2csc(Nc3ccc(O)c(C(=O)O)c3)n2)s1	inconclusive [activator, single point]
Cc1cc(C)nc(Nc2nc(-c3ccccc3)cs2)n1	inconclusive [activator, partial curve, poor fit]
C=CCOc1c(Br)cc(CNc2ccc(NC(=O)C(C)C)c(OC)c2)cc1OCC	inconclusive [activator, partial curve, poor fit]
COc1cc2c(cc1NCc1ccccn1)oc1ccccc12	inactive
Cc1cccc(C(C)(C)C)c1OCCOCCN1CCCC1	inactive
COCCCNC(=S)NC(=O)c1ccccc1	inconclusive [activator, partial curve, poor fit]
Cc1ccc(S(=O)(=O)Nc2nc3ccccc3s2)cc1	inactive
C/C(=N\NC(=O)c1cc(-c2ccc(C)s2)[nH]n1)c1ccco1	inconclusive [activator, partial curve, poor fit]
Cc1ccc(S(=O)(=O)NC(=O)NCc2ccc3c(c2)OCO3)cc1	inactive
CNC(=O)c1sc2nc(-c3ccc(OC)cc3)cn2c1C	inconclusive [activator, full curve, poor fit]
COc1ccc(C(=O)Nc2nnc(SCC(=O)NC3CCCC3)s2)c(OC)c1	inconclusive [activator, partial curve, poor fit]
Cc1ccc(-n2cc(CN3CCCN(C=O)CC3)c(-c3ccc(F)cc3)n2)cc1	inactive
CC(C)C(=O)O/N=C(\N)c1ccccn1	inconclusive [activator, single point]
O=C(CSc1nc2ccc(NC(=O)c3ccccc3C(=O)O)cc2s1)Nc1ccc(F)c([N+](=O)[O-])c1	inconclusive [activator, full curve, poor fit]
CCCCN1CNC(=S)N(c2cc(C)ccc2C)C1	inactive

SMILES	Potency
Cc1cccc(C)c1OCc1cc(C(=O)N2CCC(c3ccccc3)CC2)no1	inconclusive [activator, single point]
NC(=O)c1cc(S(=O)(=O)NCCCc2ccccc2)cs1	inconclusive [activator, full curve, poor fit]
COc1cc(C2C(C#N)=C(N)N(Nc3ccccc3)C3=C2C(=O)CC(C)(C)C3)ccc1OCc1cccc(F)c1 (stereo not drawn)	inactive
O=C(CNC(=O)c1cccs1)OCC(=O)c1ccc2ccccc2c1	inactive
Fc1ccccc1C(c1nnnn1Cc1ccc2c(c1)OCO2)N1CCN(Cc2ccccc2)CC1 (stereo not drawn)	inconclusive [activator, single point]
N#Cc1ccc(CSc2nnc(-c3cnccn3)o2)cc1	inconclusive [activator, partial curve, poor fit]
CNc1nc(-c2ccc3c(c2)CCN3C(=O)CC(C)(C)C)c(C)s1	inactive
NC(=O)c1ccsc1NC(=O)c1coc2ccccc2c1=O	inconclusive [activator, full curve, poor fit]
c1ccc(-n2cnnc2SCc2nc3ccccc3s2)cc1	inconclusive [activator, partial curve, poor fit]
O=C(NCc1cccs1)c1ccc2c(c1)ncn2C1CCCC1	inconclusive [activator, single point]
Cc1ccc(-c2c(C(=O)N/N=C/c3ccoc3)nnn2-c2nonc2N)cc1	inactive
CC(c1ccccc1)n1c(-c2ccc(C(C)(C)C)cc2)n[nH]c1=S (stereo not drawn)	inconclusive [activator, single point]
CN(CCO)c1nc(N)c2c(N)nc3c(c2c1C#N)CC(=O)N3C1CCCC1	inactive
O=C(O)c1ccccc1NN=C1CCCCC1	inconclusive [activator, partial curve, poor fit]
O=C1c2cccc3cc([N+](=O)[O-])cc(c23)C(=O)N1CCN1CCCC1	inconclusive [activator, full curve, poor fit]
COc1ccc2nc3oc(C(=O)N4CCCCC4)cc3cc2c1	inconclusive [activator, partial curve, poor fit]
COc1ccc(CNc2ncnc3c2[nH]c2ccccc23)cc1	inactive
Cc1cccc(C(=O)OCC(=O)Nc2ccccc2C(=O)NC2CC2)c1	inconclusive [activator, single point]
O=C(Nc1ccc(N2CCCCC2)cc1)c1cccnc1	inconclusive [activator, partial curve, poor fit]
Cc1nc2ccc(NC(=O)CCS(=O)(=O)c3ccccc3)cc2s1	inconclusive [activator, full curve, poor fit]
O=C(NNc1nc2ccccc2s1)Nc1ccc(F)cc1	inconclusive [activator, partial curve, poor fit]
Cc1c(C(=O)Oc2ccc(-c3cnc4ccccc4n3)cc2)cccc1[N+](=O)[O-]	inconclusive [activator, partial curve, poor fit]
Cc1ccc(/C=[N+](\[O-])c2ccc(N(C)C)cc2)c2nsnc12	inconclusive [activator, single point]

SMILES	Potency
COc1cccc(-c2ccc(NC(=O)C3CCCN(Cc4cc(C)[nH]n4)C3)cc2)c1 (stereo not drawn)	inconclusive [activator, single point]
CC1=NC(=O)C(N=Nc2ccccc2)N1c1ccccc1 (stereo not drawn)	inconclusive [activator, partial curve, poor fit]
CCCCN(C)C(=O)C1CCN(Cc2ccc(OCc3ccccc3)cc2)CC1	inconclusive [activator, partial curve, poor fit]
O=C1NC(=S)S/C1=C/c1ccc(N2CCOCC2)o1	inconclusive [activator, partial curve, poor fit]
Cc1nc2cc(NC(=O)N3CCCCC3)ccc2n1C	inconclusive [activator, partial curve, poor fit]
c1ccc(-c2nc3c4ccccc4ccn3c2CN2CCOCC2)cc1	inconclusive [activator, single point]
Cc1ccc2c(c1)N(C(=O)CCC(=O)NCc1cccnc1)CC(C)O2 (stereo not drawn)	inconclusive [activator, partial curve, poor fit]
Cc1noc(C)c1C(=O)Nc1nc(-c2ccccc2Cl)cs1	inconclusive [activator, full curve, poor fit]
Cc1csc(NC(=O)CSC2=NCCS2)n1	inconclusive [activator, single point]
O=c1[nH]c(/C=C2\C=Nc3ccccc32)c(O)n1Cc1ccccc1F	inactive
Cc1cccc(C(=O)Oc2ccc(/C=N/NC(=O)c3ccccc3O)cc2)c1	inconclusive [activator, partial curve, poor fit]
COc1ccc(-c2nc(-c3ccncc3)no2)cc1OC	inconclusive [activator, partial curve, poor fit]
CC(C)(C)c1nnc(N/N=C/c2cc(Br)ccc2O)n(N)c1=O	inconclusive [activator, partial curve, poor fit]
Cc1ccc(C(C)(C)NC(=O)C2CCC(=O)N(CCCN3CCOCC3)C2)cc1 (stereo not drawn)	inactive
O=C(Nc1nnc(-c2ccccc2)o1)c1cccc(S(=O)(=O)N2CCOCC2)c1	inconclusive [activator, partial curve, poor fit]
Cc1cc(OCC(=O)Nc2ccc3c(c2)OCCO3)ccc1Cl	inconclusive [activator, partial curve, poor fit]
O=C(CSc1nnc(Nc2ccccc2F)s1)NC1CC1	inconclusive [activator, full curve, poor fit]
COc1ccc2nc(N3CCN(C(=O)C4COc5ccccc5O4)CC3)sc2c1 (stereo not drawn)	inconclusive [activator, partial curve, poor fit]
CCCCNC(=S)NNC(=O)c1csc(CC)c1	inconclusive [activator, partial curve]
COCCN=c1scc(-c2cccs2)n1/N=C(\C)c1ccco1	inactive
Cc1cc(=O)oc2cc(NC(=O)c3ccccc3OC(F)F)ccc12	inactive
O=C(Oc1ccc(-c2cnc3ccccc3n2)cc1)c1cccc([N+](=O)[O-])c1	inconclusive [activator, full curve, poor fit]
